This is one part of the list.
T1: UNK ZnF1-6 (called full-length) (human, UniProt Q9C0B0 30-357)
T1 sequence: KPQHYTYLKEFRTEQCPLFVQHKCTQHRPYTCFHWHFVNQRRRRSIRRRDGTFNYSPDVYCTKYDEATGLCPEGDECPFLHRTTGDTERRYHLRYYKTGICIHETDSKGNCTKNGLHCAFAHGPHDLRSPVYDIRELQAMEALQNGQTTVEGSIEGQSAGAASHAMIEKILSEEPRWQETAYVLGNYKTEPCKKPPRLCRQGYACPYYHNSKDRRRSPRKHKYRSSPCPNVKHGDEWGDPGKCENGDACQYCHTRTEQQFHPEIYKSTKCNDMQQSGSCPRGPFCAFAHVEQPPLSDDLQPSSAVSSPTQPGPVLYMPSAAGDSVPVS

B1: chrX:106032434:106033499:-|three_prime_utr|ENSG00000123561|control|control|control (ssRNA)
RNA: GGGAGUUCUACAGUCCGACGAUCGGAAAAAGGCCAUUGGCUAAUUGCACGUGUGUAUUGCAAUGGGAAAUAAAUAAAUAAUAUAGCCUGGUGUGAUUGAUGUGAGCUUGGACUUGCAUUCCCUUAUGAUGGGAUGAAGAUUGACAACAGAGGAUUGAGCAUCA
B2: chr1:202892395:202892497:-|3pUTR|ENSG00000117153|unk|FALSE|unique (ssRNA)
RNA: GGGAGUUCUACAGUCCGACGAUCGCGAGAAGUGACCAUUGUUGGAGCACCAUCCAGAGCUAGUGACCAGUCCAGUGGACAGUUAGUGGGAGAAUCAAAAAUCCUUUCCAGAAUGUCUGUUUCUCACUAUGUGCACCGGGUGAUCAACAGAGGAUUGAGCAUCA
B3: chr5:91374913:91375023:-|CDS|ENSG00000113369|unk|total|mutant (ssRNA)
RNA: GGGAGUUCUACAGUCCGACGAUCGAGACGUGGAAUGGCAAGUUGCUGAAAAUUCCACCAGUUUCUCCCUCUAUCCUCGACUGCCGUAUAAUCCGCGUGGAAUAUUCACUAAUGGUAUGUACACAUUUAAGAGGUUUUUUCCUUCAACAGAGGAUUGAGCAUCA
B4: chr4:81602736:81602922:-|CDS|ENSG00000138670|control|control|control (ssRNA)
RNA: GGGAGUUCUACAGUCCGACGAUCUUCCAUGUACAGCAGCAUAACUCCAGUUUGCUUUCCAAGCCCUCUGAUUGAGAAGCCAAUAGGCAAAGUAAGAAUGAACCUACUUUUAUCAGACACUAUGAUUCGAGCCAGUUGGCUGUUCAACAGAGGAUUGAGCAUCA
B5: chr17:30248266:30248367:-|3pUTR|ENSG00000108578|msi1|FALSE|unique (ssRNA)
RNA: GGGAGUUCUACAGUCCGACGAUCUUGGGUGAGAACAACCAAAAUCUUAUCAUGGUCUCAGUCAUAAUCAUUAGGGGGAACUCUAGCCAAAUGGUUUAACUUCUGCCUGUGGAACUGGGGAUUGGGUGGGCAGGAAAAGGUGAUCAACAGAGGAUUGAGCAUCA
B6: chr12:95077336:95077437:-|3pUTR|ENSG00000180263|msi1|FALSE|unique (ssRNA)
RNA: GGGAGUUCUACAGUCCGACGAUCUCCUCAUUGACCCAUCCGCAUCUCUGUUUAUCCAAGACUUCUCUGUGAUAGCUGACCCUUAGUCUUUCUCUCCCCUAUUCCUCCAGACUAGAUCCUGUCUCCUUCCUGCAGCCCCGACACCAACAGAGGAUUGAGCAUCA
B7: ENSG00000070961:be:win_2701|CDS|ENSG00000070961|bound_else_gene|NA|bound_elsewhere_windowed (ssRNA)
RNA: GGGAGUUCUACAGUCCGACGAUCGCUCUGGCAACGGAACCACCCACUGAGUCUCUCUUGCUUCGGAAACCUUAUGGUAGAAAUAAGCCUCUCAUCUCACGUACAAUGAUGAAGAAUAUUUUGGGUCAUGCAUUCUAUCAACUUCAACAGAGGAUUGAGCAUCA
B8: ENSG00000107863:be:win_4901|CDS|ENSG00000107863|bound_else_gene|NA|bound_elsewhere_windowed (ssRNA)
RNA: GGGAGUUCUACAGUCCGACGAUCAAACCGACAGCGAGAGCGAGUUUCCCGUGUUCCCCACAGCCUUGACUUCAGAGAGGCUUUUCCGAGGAAAACUGCAAGAAGUGACUAAGAGCAGCCGGAGAAAUUCUGAAGGAAGUGAAUCAACAGAGGAUUGAGCAUCA
B9: ENSG00000198589:be:win_6001|CDS|ENSG00000198589|bound_else_gene|NA|bound_elsewhere_windowed (ssRNA)
RNA: GGGAGUUCUACAGUCCGACGAUCGGAUCGACACAUCCUGAAGCGACACUAAAAACAGCCGUGGAACAUGCCACAGAUGAAGAUAUCCUUGCUAAAGGAAAACAGUCCAUCAGGAGUCAGGCUUUAGGAAAUCAGAACUCAGAACAACAGAGGAUUGAGCAUCA
B10: chr2:171482635:171482736:+|3pUTR|ENSG00000115827|unk|total|mutant (ssRNA)
RNA: GGGAGUUCUACAGUCCGACGAUCCAAGAGUGUUUCAGAACCGGAUGUCUUAAGACUUCAGUCAUGUCAGAGAUUUUUUUUUUCCGGUGAUUAUUGAGUUUCUCCUUCUCCUUUAAGUCAUCACCUUCCUUUUAUGAAAUGAUACAACAGAGGAUUGAGCAUCA
B11: chr3:44491765:44499181:-|three_prime_utr|ENSG00000178917|control|control|control (ssRNA)
RNA: GGGAGUUCUACAGUCCGACGAUCACUAAUCACAGUGGAGACCAUACCUACUUGCUUUUCCUUGGGUCACUAAGGUGGGAGAGUAGGUGCAACUUAGUCUGAUCCUUACUUAGUAGGAAAUUGGGGAUUACAUCUGUCAUUAACCAACAGAGGAUUGAGCAUCA
B12: chr14:71589133:71589262:+|CDS|ENSG00000197555|unk|total|mutant (ssRNA)
RNA: GGGAGUUCUACAGUCCGACGAUCGAGACCGGUGGAGAAGGGGAGAGGAAAAUCAGCCUUUCAAAAUCAAAUUCUGGCUCCUUCCGUGGAUGUGAAAGUGCCUCCUUUGAGUCUACCCUCCGUUCCCAUUGCACAAAUGCAGGACAACAGAGGAUUGAGCAUCA
B13: ENSG00000107863:be:win_2101|CDS|ENSG00000107863|bound_else_gene|NA|bound_elsewhere_windowed (ssRNA)
RNA: GGGAGUUCUACAGUCCGACGAUCGGUACUUCAGAUUUAGAACUACCUGUCAGUCAAAGGAAUCAAGAUUUAAGUUUACAAGAGGCUGAAACUGAGCAAUCAGAUACUUUAGAUAAUAAAGAAGCUGUCAUCCUAAGGGAAAAACAACAGAGGAUUGAGCAUCA
B14: ENSG00000136451:be:win_2651|3pUTR|ENSG00000136451|bound_else_gene|NA|bound_elsewhere_windowed (ssRNA)
RNA: GGGAGUUCUACAGUCCGACGAUCUUUAAAUUUCUCCUUCCGUUUCUUAAGUAUUGCGCAGAUUUGUUCAACUUUGUAAAUAUGGACAUCACUUUUUUUUUCUUUGAGAAAACACUUGUAUCAGCUUUGUGGUGUUUUCAGGGACAACAGAGGAUUGAGCAUCA
B15: ENSG00000136451:be:win_2351|3pUTR|ENSG00000136451|bound_else_gene|NA|bound_elsewhere_windowed (ssRNA)
RNA: GGGAGUUCUACAGUCCGACGAUCGAAGUCAAGUGUGUGGACAGGCAAGCUCCUAAUAAACAGAGUCCAGUGGGAUUCCUAUUUAGGAGCCAAGGAGUACUUUGGAACAGUACAAAUAUAUUGCUUUAAAUUGGAAGACGCUGGCAACAGAGGAUUGAGCAUCA
B16: chr1:162783069:162783171:+|3pUTR|ENSG00000162733|unk|total|mutant (ssRNA)
RNA: GGGAGUUCUACAGUCCGACGAUCUGAAAGCCGUUCAAAUUUGAAUCCGAAGAAUGAAGCCCGGACUUAUUUGGAAAAGGAGACCGAAAAAAAAUGAUCAGAAACUGUGGGGCCUUAUUACCUUUGCAGUAAGUUAUCUUCUUCCAACAGAGGAUUGAGCAUCA
B17: chr12:125025615:125025697:+|3pUTR|ENSG00000184992|msi1_unk|total|mutant (ssRNA)
RNA: GGGAGUUCUACAGUCCGACGAUCGGACACAUUCCCAGAAGAGCGGAAAGAUCAUUGACGUGGAACUACACACGAAGUGUAAUCCGUGGGGGAAAAAAUAUUUUUUAAACAAAGGAUAUAACCAUAUUCCGUUGUACAGUAAGACAACAGAGGAUUGAGCAUCA
B18: chr17:34942483:34942643:-|CDS|ENSG00000132141|control|control|control (ssRNA)
RNA: GGGAGUUCUACAGUCCGACGAUCGAAAGAGAAAUUGGUAAAAGCUGAAAGAAAAUUUAUUGAAGAUAGAGUACAAAAAAUAAUAGACCUGAAGGACAAAGUCUGUGCUCAGUCAAAUAAAGGAUUUGUCGUCAUUAAUCAAAACAACAGAGGAUUGAGCAUCA
B19: chr11:126202095:126203417:-|three_prime_utr|ENSG00000165526|control|control|control (ssRNA)
RNA: GGGAGUUCUACAGUCCGACGAUCAAGGUAAAGCAACUCAGCUGCUACAGGGCUUUUAAUGGAGAACAAAGUCUAUUUACUGAUAGUUUGGCUGCACUGUGGAAAAGCCUGCUGGAAGUCUCCCUGCCGUGGGCUCUCAUUGCCCAACAGAGGAUUGAGCAUCA
B20: chr7:56058368:56058516:+|CDS|ENSG00000146731|unk|FALSE|unique (ssRNA)
RNA: GGGAGUUCUACAGUCCGACGAUCUACAAGAGUGCAGAAGAGAGAGAAAAACUCGUGAAAGCUGAAAGAAAAUUCAUUGAAGAUAGGGUUAAAAAAAUAAUAGAACUGAAAAGGAAAGUCUGUGGCGAUUCAGAUAAAGGAUUUCAACAGAGGAUUGAGCAUCA
B21: chr8:17969608:17969733:+|CDS|ENSG00000078674|unk|FALSE|unique (ssRNA)
RNA: GGGAGUUCUACAGUCCGACGAUCUUCUAAUUUUGGAGAUUUUUCUCAGAAUAUCUCUACACCCAGUGAACAGCAGCAACCCUUAGCCCAGAAUUCUUCAGGAAAAACAGAAUAUAUGGCUUUUCCAAAACCUUUUGAAAGCAGCAACAGAGGAUUGAGCAUCA
B22: chr5:136988535:136988636:-|CDS|ENSG00000152377|msi1|total|mutant (ssRNA)
RNA: GGGAGUUCUACAGUCCGACGAUCGGAAAGCAUCAGGCUUGGUGGCAGCUGAGAUAUGCCUUUUGUUUGGCAGGGUUUGACACCCGCAUCCUGCCCAUCUGCAAGGACUCCCUGGGCUGGAUGUUCAACAAGUUGGACAUGAACCAACAGAGGAUUGAGCAUCA

target: T1, UNK ZnF1-6 (called full-length); assay: nsRBNS (natural sequence RNA bind-n-seq); RBNS binding buffer (assumed for nsRBNS): 25 mM Tris pH 7.5, 150 mM KCl, 3 mM MgCl2, 0.01% Triton X-100, 500 ug/ml BSA, 20 U/ml SUPERase-In, 4 C; UNK is unkempt and MSI1 is Musashi-1; names of the RNAs are library labels; protein concentration not given here; high values mean tight binding

In order of falling binding signal:
1. B6  1.21 enrichment R
2. B20  1.17 enrichment R
3. B5  0.967 enrichment R
4. B22  0.913 enrichment R
5. B18  0.9 enrichment R
6. B13  0.795 enrichment R
7. B11  0.752 enrichment R
8. B7  0.673 enrichment R
9. B15  0.653 enrichment R
10. B10  0.63 enrichment R
11. B19  0.627 enrichment R
12. B12  0.626 enrichment R
13. B14  0.554 enrichment R
14. B17  0.553 enrichment R
15. B1  0.545 enrichment R
16. B8  0.536 enrichment R
17. B21  0.522 enrichment R
18. B2  0.479 enrichment R
19. B9  0.428 enrichment R
20. B4  0.386 enrichment R
21. B3  0.371 enrichment R
22. B16  0.349 enrichment R

— publication PMC12136788
